In US5510240A, “Method of screening a peptide library” (The Arizona Board of Regents, priority 1993, dated 1996):
Not every detail of the peptide structures is certain; ends, links or a residue may be inferred. Where a SMILES comes first, the peptide text is derived from it. Where no end group is shown, it is not given here. [ ]: non-standard residue; d: D form. βAla = NCCC(=O)O

Target: anti-v-mos MAb
Test: solution phase binding studies with [3H]Ac-v-mos as radioligand
Parameters: species or system mouse
Conditions: 10 μg/ml anti-v-mos MAb, 20 nM [3H]Ac-v-mos, PBS-gelatin, 23-24 °C

| Molecule | Ki [µM] |
| --- | --- |
| CC(C)[C@H](NC(=O)[C@H](CO)NC(=O)CNC(=O)[C@H](Cc1ccccc1)NC(=O)CN)C(=O)N[C@@H](Cc1ccc(O)cc1)C(=O)NCCC(=O)O [GFGSVY-βA-OH] (H-GFGSVY[βAla]-OH) | 529 to 770 |
| GRRAYE-NH2 [GRRAYE-NH2] | 24.7 ± 7 |
| GRRGME-OH [GRRGME-OH] | > 100 |
| LGSGGFGSVYKA [reference compound] | 3.2 ± 0.4 |
| C[C@H](NC(=O)[C@H](CCCNC(=N)N)NC(=O)[C@H](CCCNC(=N)N)NC(=O)CN)C(=O)N[C@@H](Cc1ccc(O)cc1)C(=O)N[C@@H](CCC(=O)O)C(=O)NCCC(=O)O [GRRAYE-βA-OH] (H-GRRAYE[βAla]-OH) | 15.1 ± 0.5 |
| CSCC[C@H](NC(=O)CNC(=O)[C@H](CCCNC(=N)N)NC(=O)[C@H](CCCNC(=N)N)NC(=O)CN)C(=O)N[C@@H](CCC(=O)O)C(=O)NCCC(N)=O [GRRGME-βA-NH2] (H-GRRGME[βAla]-NH2) | 24 ± 8.4 |
| GRRAYE-OH [GRRAYE-OH] | 6.79 ± 2.31 |
| C[C@H](NC(=O)[C@H](CCCNC(=N)N)NC(=O)[C@H](CCCNC(=N)N)NC(=O)CN)C(=O)N[C@@H](Cc1ccc(O)cc1)C(=O)N[C@@H](CCC(=O)O)C(=O)NCCC(N)=O [GRRAYE-βA-NH2] (H-GRRAYE[βAla]-NH2) | 9.02 to 20.4 |
| GFGSVY-OH [GFGSVY-OH] | > 1000 |
| CC(C)[C@H](NC(=O)[C@H](CO)NC(=O)CNC(=O)[C@H](Cc1ccccc1)NC(=O)CN)C(=O)N[C@@H](Cc1ccc(O)cc1)C(=O)NCCC(N)=O [GFGSVY-βA-NH2] (H-GFGSVY[βAla]-NH2) | 409 to 442 |
| N=C(N)NCCC[C@H](NC(=O)CN)C(=O)N[C@@H](CCCNC(=N)N)C(=O)N1CCC[C@H]1C(=O)N[C@@H](Cc1ccc(O)cc1)C(=O)NCC(=O)NCCC(N)=O [GRRPYG-βA-NH2] (H-GRRPYG[βAla]-NH2) | 20.5 ± 4.5 |
| N=C(N)NCCC[C@H](NC(=O)CN)C(=O)N[C@@H](CCCNC(=N)N)C(=O)N[C@@H](CCC(=O)O)C(=O)NCC(=O)N1CCC[C@H]1C(=O)NCCC(N)=O [GRREGP-βA-NH2] (H-GRREGP[βAla]-NH2) | 26.9 ± 6.2 |
| GFGSVY-NH2 [GFGSVY-NH2] | 246 to 337 |
| GRRPYG-OH [GRRPYG-OH] | > 1000 |
